# From PubChem BioAssay AID485313 (National Center for Advancing Translational Sciences (NCATS), 2010)
# Hit rate of the full screen: of about 320,000 compounds, about 7,600 (2.4%) were called active. The shares of active, inactive and inconclusive entries below differ from those in the screen. The call rests on the fitted dose curve; in most records, active means well fitted activation curve with a large enough effect; inconclusive means small, poorly fitted or top-dose-only effect; inactive means no such curve, though single readings can be large or run the other way. No potency is given beside an inconclusive call; the fits are too rough.
# Experiment: qHTS Assay for NPC1 Promoter Activators; further: nearly all actives have a fitted effect of over 60% in size;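 on activation: reporter is driven by a mutant NPC1 promoter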
# Conditions: Huh7 NPC1 promoter luciferase reporter, 24 h; series mostly up to 9.22 µM
# How it was run: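 Cells: Huh7 expressing luciferase under the NPC1 promoter, 1500/well. Seeded 2 h, compound added, incubated 24 h at 37 °C. Luciferase reagent, 10 min ambient, then luminescence.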
# Potency means the concentration at half of the fitted maximal effect; tags describe the fitted curve by direction and shape.
row,Structure (SMILES),Potency
1,Cc1ccc(-c2nc(N/N=C/c3cccnc3)c3ccccc3n2)cc1,"inconclusive [activator, single point]"
2,O=C(O)c1ccc(N=N/C(=N\Nc2ccc(C(=O)O)cc2)c2ccccc2)cc1,"inconclusive [activator, partial curve]"
3,CCOc1ccc(NC(=O)CN(C)C(=O)c2ccc(-c3ccc(C(C)=O)cc3)o2)cc1OCC,"inconclusive [activator, single point]"
4,CSc1ccc(/C=N/NC(=O)c2cccc(O)c2)cc1,"inconclusive [activator, single point]"
5,O=C(Nc1sc2c(c1C(=O)O)CCCCC2)c1cccs1,"inconclusive [activator, partial curve]"
6,CCN(CC)CCN(C(=O)c1ccc2ncsc2c1)c1nc2cc3c(cc2s1)OCO3,active: 0.708 µM
7,O=C(CSc1nnc(-c2ccccc2O)o1)Oc1ccc(OCc2ccccc2)cc1,"inconclusive [activator, single point]"
8,CN(C)/C=C1\C(=O)N(c2ccc(Cl)c(Cl)c2)CS1(=O)=O,"inconclusive [activator, partial curve]"
9,CC(=O)c1c(C)nc(Nc2nc3ccccc3s2)nc1C,"inconclusive [activator, single point]"
10,Cc1ccc(SCCCCN2CCNCC2)cc1,"inconclusive [activator, partial curve]"
11,COc1ccc(N/C=C\C(=O)c2ccc3ccccc3c2)cc1,active: 2 µM
12,Cc1ccc2nc(Cl)c(/C=N/Nc3ccc(C(=O)O)cc3)cc2c1,active: 0.316 µM
13,O=C(NCc1ccco1)C(=O)NCC1OCCN1S(=O)(=O)c1cc(F)ccc1F (centres undefined),inactive
14,Cc1cccc(NC(=S)NC(=O)/C=C/c2ccccc2)n1,"inconclusive [activator, single point]"
15,C/C(=N\NC(=O)c1sccc1C)c1cccnc1,"inconclusive [activator, partial curve]"
16,O=C(N/N=C/c1ccccc1[N+](=O)[O-])c1cnccn1,"inconclusive [activator, single point]"
17,C/C(=N\NC(=O)c1cc(-c2ccc(Br)s2)[nH]n1)c1ccncc1,inactive
18,CC(/C=C/c1ccco1)=N/NC(=O)OC(C)(C)C,"inconclusive [activator, single point]"
19,CC(=O)c1ccc(OCc2cc(=O)n3ccsc3n2)cc1,"inconclusive [activator, partial curve]"
